Data from US12479847B2 (DANA-FARBER CANCER INSTITUTE, INC., priority 2019, dated 2025).

The compounds below were run against human LRRK2(G2019S) kinase (Homo sapiens, UniProt Q5S007, G2019S) (assay: biochemical). Settings: not given.
Procedure: Assay kits from Promega™ Corporation were used according to instructions and adapted as outlined herein. Test compounds were generally prepared with 1:3 serial dilutions for 12 concentrations (from 50 μM to 0.01 nM) ATP competition experiments. The kinase reaction was performed with kinase reaction buffer (40 mM Tris base pH 7.4, 20 mM MgCl2, 0.5 mM dithiothreitol), 0.1 mg/ml bovine serum albumin, distilled H2O). The reaction mixtures contained Pure ATP solution (10 μM), specific substrate (0.2 μg), and (human LRRK2 kinase (25 ng)) or (human LRRK2(G2019S) kinase (16 ng)), in a total assay volume of 5 μl after the manufacturer's protocol. In brief, the kinase reactions were started by addition of ATP to the kinase reaction mixture. The resulting mixture was incubated for 60 minutes at 25° C., and then stopped by adding 5 μl of ADP-Glo™ reagent. After incubation at room temperature in the dark for 40 minutes, 10 μl of kinase detection reagent was added per well, and the mixture was incubated for 10 minutes. Luminescence was measured using a Synergy™NEO2 plate reader (BioTek®) with an integration time of 1 second per well. Positive and negative controls were performed in 0.5% DMSO in the presence and absence of LRRK2 kinases. Curve fitting and data presentations were performed using GraphPad Prism version 5.0 (GraphPad Software, Inc.). The LRKK2 and LRRK2(G2019S) assay with inventive compounds 1-64 are summarized in the table below (Table 1), wherein: […]

| SMILES | IC50 [nM] |
| --- | --- |
| CCCNc1nc(Nc2ccc(P3(=O)CCN(C(C)=O)CC3)cc2OC)nc2[nH]cc(Cl)c12 [Compound 100, 1-(4-(4-((5-chloro-4-(propylamino)-7H-pyrrolo[2,3-d]pyrimidin-2-yl)amino)-3-methoxyphenyl)-4-oxido-1,4-azaphosphinan-1-yl)ethan-1-one] | < 10 |
| COc1cc(P2(=O)CCN(C3CCOCC3)CC2)ccc1Nc1nc(NC2CCCCC2)c2c(Cl)c[nH]c2n1 [Compound 81, 4-(4-((5-chloro-4-(cyclohexylamino)-7H-pyrrolo[2,3-d]pyrimidin-2-yl)amino)-3-methoxyphenyl)-1-(tetrahydro-2H-pyran-4-yl)-1,4-azaphosphinane 4-oxide] | 10 to 100 |
| CNc1nc(Nc2ccc(C(=O)N3CCOCC3)c3c2OCC3)nc2[nH]cc(Cl)c12 [Compound 76, (7-((5-chloro-4-(methylamino)-7H-pyrrolo[2,3-d]pyrimidin-2-yl)amino)-2,3-dihydrobenzofuran-4-yl)(morpholino)methanone] | < 10 |
| COc1cc(S(=O)(=O)N2CCC(N3CCOCC3)CC2)ccc1Nc1nc(N[C@H]2CCOC2)c2c(Cl)c[nH]c2n1 [Compound 61, (S)-5-chloro-N2-(2-methoxy-4-((4-morpholinopiperidin-1-yl)sulfonyl)phenyl)-N4-(tetrahydrofuran-3-yl)-7H-pyrrolo[2,3-d]pyrimidine-2,4-diamine] | > 1000 |
| COc1cc(P2(=O)CCN(C(C)=O)CC2)ccc1Nc1nc(NC(C)C)c2c(Cl)c[nH]c2n1 [Compound 89, 1-(4-(4-((5-chloro-4-(isopropylamino)-7H-pyrrolo[2,3-d]pyrimidin-2-yl)amino)-3-methoxyphenyl)-4-oxido-1,4-azaphosphinan-1-yl)ethan-1-one] | < 10 |
| COCCNc1nc(Nc2ccc(C(=O)N3CCOCC3)c3c2OCCO3)nc2[nH]cc(Cl)c12 [Compound 9, (8-((5-chloro-4-((2-methoxyethyl)amino)-7H-pyrrolo[2,3-d]pyrimidin-2-yl)amino)-2,3-dihydrobenzo[b][1,4]dioxin-5-yl)(morpholino)methanone] | < 10 |
| COc1cc(S(C)(=O)=O)ccc1Nc1nc(NC2CCCC2)c2c(Cl)c[nH]c2n1 [Compound 57, 5-chloro-N4-cyclopentyl-N2-(2-methoxy-4-(methylsulfonyl)phenyl)-7H-pyrrolo[2,3-d]pyrimidine-2,4-diamine] | > 1000 |
| COc1cc(S(C)(=O)=O)ccc1Nc1nc(NC2CCOCC2)c2c(Cl)c[nH]c2n1 [Compound 63, 5-chloro-N2-(2-methoxy-4-(methylsulfonyl)phenyl)-N4-(tetrahydro-2H-pyran-4-yl)-7H-pyrrolo[2,3-d]pyrimidine-2,4-diamine] | 10 to 100 |
| CC[C@@H](C)Nc1nc(Nc2ccc(S(=O)(=O)N3CCC(N4CCOCC4)CC3)cc2OC)nc2[nH]cc(Cl)c12 [Compound 48, (R)—N4-(sec-butyl)-5-chloro-N2-(2-methoxy-4-((4-morpholinopiperidin-1-yl)sulfonyl)phenyl)-7H-pyrrolo[2,3-d]pyrimidine-2,4-diamine] | 100 to 1000 |
| CC(C)Nc1nc(Nc2ccc(C(=O)N3CCC(N4CCOCC4)CC3)c3c2OCCO3)nc2[nH]cc(Cl)c12 [Compound 88] | < 10 |

The next lines start with the values.

| IC50 [nM] | SMILES |
| --- | --- |
| 100 to 1000 | COc1cc(S(C)(=O)=O)ccc1Nc1nc(NCC(C)C)c2c(Cl)c[nH]c2n1 [Compound 32, 5-chloro-N4-isobutyl-N2-(2-methoxy-4-(methylsulfonyl)phenyl)-7H-pyrrolo[2,3-d]pyrimidine-2,4-diamine] |
| < 10 | COc1cc(P2(=O)CCN(C3CC3)CC2)ccc1Nc1nc(NC2CCC2)c2c(Cl)c[nH]c2n1 [Compound 104, 4-(4-((5-chloro-4-(cyclobutylamino)-7H-pyrrolo[2,3-d]pyrimidin-2-yl)amino)-3-methoxyphenyl)-1-cyclopropyl-1,4-azaphosphinane 4-oxide] |
| < 10 | COc1cc(S(C)(=O)=O)ccc1Nc1nc(NC2CC2)c2c(Cl)c[nH]c2n1 [Compound 26, 5-chloro-N4-cyclopropyl-N2-(2-methoxy-4-(methylsulfonyl)phenyl)-7H-pyrrolo[2,3-d]pyrimidine-2,4-diamine] |
| 100 to 1000 | COc1cc(S(C)(=O)=O)ccc1Nc1nc(NCC2CC2)c2c(Cl)c[nH]c2n1 [Compound 64, 5-chloro-N4-(cyclopropylmethyl)-N2-(2-methoxy-4-(methylsulfonyl)phenyl)-7H-pyrrolo[2,3-d]pyrimidine-2,4-diamine] |
| < 10 | CCNc1nc(Nc2ccc(C(=O)N3CCC(N4CCOCC4)CC3)c3c2OCC3)nc2[nH]cc(Cl)c12 [Compound 105, (7-((5-chloro-4-(ethylamino)-7H-pyrrolo[2,3-d]pyrimidin-2-yl)amino)-2,3-dihydrobenzofuran-4-yl)(4-morpholinopiperidin-1-yl)methanone] |
| < 10 | CNc1nc(Nc2ccc(S(C)(=O)=O)cc2OC)nc2[nH]cc(Cl)c12 [Compound 13, 5-chloro-N2-(2-methoxy-4-(methylsulfonyl)phenyl)-N4-methyl-7H-pyrrolo[2,3-d]pyrimidine-2,4-diamine] |
| 100 to 1000 | CCCCNc1nc(Nc2ccc(S(=O)(=O)N3CCC(N4CCOCC4)CC3)cc2OC)nc2[nH]cc(Cl)c12 [Compound 72, N4-butyl-5-chloro-N2-(2-methoxy-4-((4-morpholinopiperidin-1-yl)sulfonyl)phenyl)-7H-pyrrolo[2,3-d]pyrimidine-2,4-diamine] |
| 10 to 100 | COc1cc(P2(=O)CCN(C3CC3)CC2)ccc1Nc1nc(NC2CCCC2)c2c(Cl)c[nH]c2n1 [Compound 78, 4-(4-((5-chloro-4-(cyclopentylamino)-7H-pyrrolo[2,3-d]pyrimidin-2-yl)amino)-3-methoxyphenyl)-1-cyclopropyl-1,4-azaphosphinane 4-oxide] |
| 10 to 100 | CCCNc1nc(Nc2ccc(C(=O)N3CCC(N4CCOCC4)CC3)c3c2OCCO3)nc2[nH]cc(Cl)c12 [Compound 2, (8-((5-chloro-4-(propylamino)-7H-pyrrolo[2,3-d]pyrimidin-2-yl)amino)-2,3-dihydrobenzo[b][1,4]dioxin-5-yl)(4-morpholinopiperidin-1-yl)methanone] |
| < 10 | CCNc1nc(Nc2ccc(C(=O)N3CCOCC3)c3c2OCCO3)nc2[nH]cc(Cl)c12 [Compound 17, (8-((5-chloro-4-(ethylamino)-7H-pyrrolo[2,3-d]pyrimidin-2-yl)amino)-2,3-dihydrobenzo[b][1,4]dioxin-5-yl)(morpholino)methanone] |
| 10 to 100 | O=C(c1ccc(Nc2nc(NCC3CC3)c3c(Cl)c[nH]c3n2)c2c1OCCO2)N1CCOCC1 [Compound 65, (8-((5-chloro-4-((cyclopropylmethyl)amino)-7H-pyrrolo[2,3-d]pyrimidin-2-yl)amino)-2,3-dihydrobenzo[b][1,4]dioxin-5-yl)(morpholino)methanone] |

Same assay, conditions: read-out: LRRK2(G2019S); ADP-Glo, ATP 10 μM, 60 minutes at 25° C.

| IC50 [nM] | SMILES |
| --- | --- |
| 100 to 1000 | CCC(C)Nc1nc(Nc2ccc(S(=O)(=O)N3CCC(N4CCOCC4)CC3)cc2OC)nc2[nH]cc(Cl)c12 (stereo in doubt) [Compound 52, (S)—N4-(sec-butyl)-5-chloro-N2-(2-methoxy-4-((4-morpholinopiperidin-1-yl)sulfonyl)phenyl)-7H-pyrrolo[2,3-d]pyrimidine-2,4-diamine] |
| 100 to 1000 | CCC(C)Nc1nc(Nc2ccc(S(C)(=O)=O)cc2OC)nc2[nH]cc(Cl)c12 (stereo in doubt) [Compound 53, (S)—N4-(sec-butyl)-5-chloro-N2-(2-methoxy-4-(methylsulfonyl)phenyl)-7H-pyrrolo[2,3-d]pyrimidine-2,4-diamine] |
